Screen size: about 1,200 compounds; about 210 (18%) were called active. Rule as the data show it: active = inhibition above about 30%; inactive = the rest. This is a selection; strong and weak results do not stand in their true shares.
Test: fluorescence readout artefact check – biochemical, HTRF, uHTS, artefact control for SUMOylation inhibitor project, confirmation (AID 2069)
Settings: HTRF interference counterscreen, at 35 µM, active compounds read high

SMILES	inhibition
CCN(CC)C(=O)c1sc2nc(-c3ccncc3)[nH]c(=O)c2c1C	active: 47.2%
COc1cc(NC(=O)c2cncc(-c3ccc(C#N)cc3)c2)cc(C(=O)Nc2cccc(C(F)(F)F)c2)c1	inactive: 10.9%
O=C(Nc1ccc2oc(-c3ccc4ccccc4c3)nc2c1)c1ccc2c(c1)OCCO2	inactive: 8.15%
NCCc1ccc(O)c(O)c1	inactive: -9.25%
CN(C(=O)CSc1nnc(NCc2ccccc2)s1)C1CCS(=O)(=O)C1 (centres undefined)	inactive: -3.15%
COc1ccc2c(c1)c(=O)oc1c(C)c(OCc3ccc(C(=O)O)cc3)ccc12	active: 31.4%
C(=N\C(/N=C/c1ccco1)c1ccco1)/c1ccco1	inactive: 7.4%
CC(=O)Nc1ccc(-c2nc3ccc(NC(C)=O)cc3o2)cc1	active: 40.8%
O=C(N/N=C/c1ccc(O)c(O)c1)N/N=C/c1ccc(O)c(O)c1	inactive: 11.1%
Cc1ccc(NC(=S)Nc2cccc3cnccc23)cc1C	inactive: -9.75%
Cc1[nH][nH]c(=O)c1C(c1ccc(-c2ccc(Cl)c(Cl)c2)o1)c1c(C)[nH][nH]c1=O	inactive: -44.4%
COc1ccccc1C1Nc2cccc3cccc(c23)N1	inactive: -18.4%
Cc1nc2c3cc(F)ccc3n(Cc3ccc(F)cc3)c2s1	inactive: -4.4%
Oc1cccc2c(NC(=S)Nc3ccc(SC(F)F)cc3)cccc12	inactive: -6.1%
S=c1[nH]nc(-c2ccccc2Cl)n1/N=C/C=C/c1ccco1	inactive: -12.8%
Cc1ccc(C)n1-c1nccc(-c2cccs2)n1	inactive: 10.5%
O=C(NNc1cc(N2CCCC2)nc(N2CCCC2)n1)c1ccc([N+](=O)[O-])cc1	inactive: -2.1%
Cc1cc(C)c(C(N)=O)c(Nc2cccc3ccccc23)n1	inactive: 0.7%
CCN(CC)c1cc(Cl)c2nonc2c1N	inactive: -13.9%
COc1ccccc1Oc1c(C)oc2c(CN3CCN(C)CC3)c(O)ccc2c1=O	active: 30.4%

SMILES	inhibition
O=C(CNc1cccc2ccccc12)N/N=C/c1ccc([N+](=O)[O-])o1	inactive: 1.3%
CC1(C)CC(=O)C2=C(C1)Nc1[nH]c(=S)[nH]c(=O)c1C2c1ccccc1 (centres undefined)	inactive: 5.95%
CN(C)S(=O)(=O)c1cccc(-c2nn(-c3ccccc3)cc2/C=C2\SC(=S)NC2=O)c1	inactive: -4%
CC(=O)Nc1ccc2nc3ccccc3nc2c1	active: 36.7%
Cc1c(C)c2cc(Cl)c(O)c(CN3CCN(C)CC3)c2oc1=O	active: 30.6%
O=C(N/N=C/c1cc(Br)cc(Br)c1O)c1ccncc1	inactive: 12.4%
Cc1ccc(-c2cc(C(=O)N/N=C/c3ccc([N+](=O)[O-])o3)c3ccccc3n2)o1	inactive: -0.25%
Nc1ccc2oc(-c3cccs3)nc2c1	active: 37.1%
Nc1ccc(N(CCO)CCO)cc1	inactive: -18.9%
CCN(CC)CCNS(=O)(=O)c1ccc2c3c(cccc13)C(=O)N2	active: 47.2%
COCCN(CCOC)S(=O)(=O)c1ccc(C(=O)Nc2nc3c(s2)CCc2ccccc2-3)cc1	active: 36.7%
S=c1[nH]nc(-c2cc(-c3ccccc3)n[nH]2)n1/N=C/c1ccc(Cl)c(Cl)c1	inactive: -4.5%
Oc1ccc(/C=N/Nc2cc(N3CCCC3)nc(N3CCCC3)n2)cc1O	active: 42.8%
CC1CCN(CCCn2c(=S)[nH]c3ccc(N4CCOCC4)cc3c2=O)CC1	active: 52.3%
O=C1S/C(=C\C=C\c2ccco2)C(=O)N1c1ccc(O)cc1	inactive: -7.05%
O=[N+]([O-])c1ccc(Cl)c(C2Nc3cccc4cccc(c34)N2)c1	inactive: -20.5%
Cc1ccc(S(=O)(=O)c2cc3c(=O)n4ccccc4nc3n(Cc3ccco3)c2=N)cc1C	inactive: 9.75%
Cc1ccc2cc(C(c3nnnn3C(C)(C)C)N3CCCCCC3)c(=O)[nH]c2c1 (centres undefined)	inactive: 14.6%
Nc1c(Cl)cc(NC(=O)c2ccccc2C(=O)O)cc1Br	inactive: -2.95%
c1coc(-c2nnc(-c3ccco3)nn2)c1	inactive: 7.95%

SMILES	inhibition
CC(C)(C)C(=O)NC(Nc1cccc2cccnc12)C(Cl)(Cl)Cl (centres undefined)	inactive: -3.75%
Cc1[nH][nH]c(=O)c1C(c1ccc(-c2ccc(Cl)c(C(=O)O)c2)o1)c1c(C)[nH][nH]c1=O	inactive: 8%
O=c1[nH]nc(CNc2ccc(O)cc2)c2ccccc12	inactive: -8.45%
Cc1n[nH]c(=S)n(NC(=O)/C=C/C(=O)Nn2c(=S)[nH]nc(C)c2=O)c1=O	active: 51.5%
O=C(c1cccc2cccc(O)c12)N1CCCCC1	inactive: -3.85%
Cc1c(CC(=O)O)c(=O)oc2c(C)c(OCc3ccccc3Br)ccc12	inactive: -1.95%
NS(=O)(=O)c1cnccc1Nc1ccc(Cl)cc1	inactive: -1.95%
Cc1[nH][nH]c(=O)c1C(c1ccc(-c2cccc(Cl)c2)o1)c1c(C)[nH][nH]c1=O	inactive: -29.4%
COc1ccc(S(=O)(=O)Nc2ccc(O)c3ccccc23)cc1	inactive: -2.65%
CN1c2ccccc2C(C)(C)C12C=Nc1c(cc(N3CCOCC3)c3ccccc13)O2 (centres undefined)	inactive: 9.7%
CC(=O)N(C1=C(Cl)C(=O)c2ccccc2C1=O)c1ccc(C(=O)O)cc1	inactive: 8.95%
CC(=O)NC(=S)Nc1ccc(NC(=S)NC(=O)/C=C/c2ccco2)cc1	inactive: -10.8%
COc1ccc(NC(=O)N2c3ccc(OC)cc3C(C)=CC2(C)C)cc1	inactive: 3.25%
O=c1c2cc(N3CCOCC3)ccc2[nH]c(=S)n1Cc1ccccn1	active: 56.3%
O=[N+]([O-])c1cc(Cl)cc(/C=N/NC(=S)Nc2ccc(S(=O)(=O)N3CCOCC3)cc2)c1O	active: 80.5%
CCCCn1c(NC(=O)c2ccc(Br)o2)c(S(=O)(=O)c2ccccc2)c2nc3ccccc3nc21	inactive: 1.65%
COc1ccc(-c2nc3ccncc3[nH]2)cc1OC	active: 46.5%
O=C(O)CN1C(=O)/C(=C/c2ccc(SCc3ccccc3)o2)SC1=S	inactive: 8.35%
Cc1c(O)ccc2c(CC(=O)N[C@@H](Cc3ccc(O)cc3)C(=O)O)cc(=O)oc12	active: 39.9%

From PubChem BioAssay AID2069 (Sanford-Burnham Center for Chemical Genomics, 2009)
